# Results published in a collection of fitness landscapes (doi:10.1126/science.1257360).
# The other results are listed elsewhere or left out.
# B1: PhoQ; a variant is named by its letters at X, in order, P23837 (parent)
# chain: MKKLLRLFFPLSLRVRFLLATAAVVLVLSLAYGMVALIGYSVSFDKTTFRLLRGESNLFYTLAKWENNKLHVELPENIDKQSPTMTLIYDENGQLLWAQRDVPWLMKMIQPDWLKSNGFHEIEADVNDTSLLLSGDHSIQQQLQEVREDDDDAEMTHSVAVNVYPATSRMPKLTIVVVDTIPVELKSSYMVWSWFIYVLSANLLLVIPLLWVAAWWSLRPIEALAKEVRELEEHNRELLNPATTRELTSLVRNLNRLLKSERERYDKYRTTLTDLTHSLKTPLXXLQXXLRSLRSEKMSVSDAEPVMLEQISRISQQIGYYLHRASMRGGTLLSRELHPVAPLLDNLTSALNKVYQRKGVNISLDISPEISFVGEQNDFVEVMGNVLDNACKYCLEFVEISARQTDEHLYIVVEDDGPGIPLSKREVIFDRGQRVDTLRPGQGVGLAVAREITEQYEGKIVAGESMLGGARMEVIFGRQHSAPKDE
# Variants of: B1
# Assay: enrichment ratio after two sorts for PhoP signalling (ratio (wild type AVST 3.29)); higher = more functional
# Settings: with PhoP (E. coli)
row,Variant,enrichment ratio
1,KTYP,≤ 0.25
2,CTTF,≤ 0.25
3,GKIA,≤ 0.25
4,WWNI,≤ 0.25
5,MVMC,≤ 0.25
6,NQAL,≤ 0.25
7,EAWE,≤ 0.25
8,MHDT,≤ 0.25
9,KYVF,≤ 0.25
10,ASHR,≤ 0.25
11,VACY,≤ 0.25
12,TMGA,17.5
13,KQFD,≤ 0.25
14,QFRY,≤ 0.25
15,LNPA,≤ 0.25
16,SGMW,≤ 0.25
17,INMY,≤ 0.25
18,QLPM,≤ 0.25
19,STVI,9.68
20,IAQK,≤ 0.25
21,IRCS,≤ 0.25
22,LRCM,≤ 0.25
23,PPWD,≤ 0.25
24,FQKC,≤ 0.25
25,YNYI,≤ 0.25
26,FRTG,≤ 0.25

row,Variant,enrichment ratio
1,YEDD,≤ 0.25
2,PVPV,≤ 0.25
3,IDLY,≤ 0.25
4,KLCP,≤ 0.25
5,PCIK,≤ 0.25
6,KYVK,≤ 0.25
7,MRKA,≤ 0.25
8,LNCT,≤ 0.25
9,HHER,≤ 0.25
10,RLIL,≤ 0.25
11,YKPI,≤ 0.25
12,MYHP,≤ 0.25
13,AGVL,7.73
14,KYWI,≤ 0.25
15,RLMT,≤ 0.25
16,TMSF,10.3
17,RSRT,≤ 0.25
18,LHFQ,≤ 0.25
19,LEMQ,1.33
20,WKQG,≤ 0.25
21,AQQS,≤ 0.25
22,HDRV,≤ 0.25
23,YLNG,≤ 0.25
24,LMCD,≤ 0.25
25,FYTY,≤ 0.25
26,GPRG,≤ 0.25

row,Variant,enrichment ratio
1,PYNF,≤ 0.25
2,HGNF,≤ 0.25
3,IVNI,≤ 0.25
4,VLVL,≤ 0.25
5,MCTI,3.03
6,WFVY,≤ 0.25
7,NPGP,≤ 0.25
8,TNTL,14
9,TRHY,≤ 0.25
10,VAMG,1.95
11,WHHP,≤ 0.25
12,MGDQ,≤ 0.25
13,DWTM,≤ 0.25
14,CSHR,≤ 0.25
15,FKWK,≤ 0.25
16,STMV,12.8
17,KCHC,≤ 0.25
18,ILFA,≤ 0.25
19,QNRW,≤ 0.25
20,DEWA,≤ 0.25
21,IASR,≤ 0.25
22,RTMK,≤ 0.25
23,FGQI,≤ 0.25
24,IESG,≤ 0.25
25,KKNV,≤ 0.25
26,RIMA,≤ 0.25

row,Variant,enrichment ratio
1,TTNA,6.58
2,PRSI,≤ 0.25
3,SCIA,5.76
4,WGKV,≤ 0.25
5,WTNK,≤ 0.25
6,PCQL,≤ 0.25
7,TYDF,≤ 0.25
8,TDEC,≤ 0.25
9,GVMA,≤ 0.25
10,LKMS,≤ 0.25
11,TTYH,2.81
12,NVHM,≤ 0.25
13,TMYC,≤ 0.25
14,FEGY,≤ 0.25
15,VPCM,≤ 0.25
16,FEVC,3.92
17,VSLF,0.403
18,NVSS,≤ 0.25
19,PPMA,≤ 0.25
20,WAYY,≤ 0.25
21,HQIS,≤ 0.25
22,PEAT,≤ 0.25
23,CWRL,≤ 0.25
24,KAFD,≤ 0.25
25,QPNA,≤ 0.25
26,SWTP,≤ 0.25

row,Variant,enrichment ratio
1,DVDK,≤ 0.25
2,TTDW,≤ 0.25
3,YREV,≤ 0.25
4,RDTC,≤ 0.25
5,SILM,0.906
6,GIGR,≤ 0.25
7,TPPI,≤ 0.25
8,LLIT,≤ 0.25
9,DRDN,≤ 0.25
10,RTGA,0.388
11,VGHV,≤ 0.25
12,YHCI,≤ 0.25
13,EHQY,≤ 0.25
14,WKYV,≤ 0.25
15,EYML,≤ 0.25
16,EVPL,≤ 0.25
17,FAMW,≤ 0.25
18,GRLL,≤ 0.25
19,RWTL,≤ 0.25
20,LGMQ,≤ 0.25
21,DIAC,≤ 0.25
22,LENQ,≤ 0.25
23,WAHR,≤ 0.25
24,QSFN,1.92
25,NLMS,≤ 0.25
26,VWFK,≤ 0.25

row,Variant,enrichment ratio
1,DAWY,≤ 0.25
2,TQPK,≤ 0.25
3,CSSW,≤ 0.25
4,HEEG,≤ 0.25
5,HFTA,≤ 0.25
6,YPWE,≤ 0.25
7,QCLP,≤ 0.25
8,YNYY,≤ 0.25
9,MHHS,≤ 0.25
10,TNMN,≤ 0.25
11,GDWS,≤ 0.25
12,YMCS,≤ 0.25
13,RVYY,≤ 0.25
14,EDEP,≤ 0.25
15,SDSG,0.62
16,ATTQ,2.71
17,WIQK,≤ 0.25
18,MPAP,≤ 0.25
19,LFIV,≤ 0.25
20,MDAP,≤ 0.25
21,MPVE,≤ 0.25
22,TVGS,8.38
23,KFTS,≤ 0.25
